Measurements as given in PubChem BioAssay AID720708 (National Center for Advancing Translational Sciences (NCATS), 2013).
Hit rate of the full screen: of about 360,000 compounds, about 660 (0.18%) were called active. Inconclusive results, whose numbers are uncertain, are shown with a selection of clear calls. Calls follow the shape of the dose curve; as a rule, active = well fitted inhibition curve with a large enough effect; inconclusive = small, poorly fitted or top-dose-only effect; inactive = no such curve, though single readings can be large or run the other way. No potency is given beside an inconclusive call; the fits are too rough.

Biological target: Rap guanine nucleotide exchange factor 4 (Homo sapiens) (UniProt Q8WZA2)
Experiment: qHTS for Antagonist of cAMP-regulated guanine nucleotide exchange factor 2 (EPAC2): primary screen; also: nearly all actives have a fitted effect of over 45% in size
Conditions: EPAC2 GEF exchange of Rap1B-BODIPY-GDP, fluorescence; activity, negative = inhibition: at 114 µM (top of the series) unless noted
% is scaled to controls: 0 for no effect and ±100 for the full control effect; potency is read from the fitted curve at half-maximal effect; tags tell the direction and shape of the fitted curve.

Sequence of UniProt Q8WZA2 (Q8WZA2 whole entry, looked up): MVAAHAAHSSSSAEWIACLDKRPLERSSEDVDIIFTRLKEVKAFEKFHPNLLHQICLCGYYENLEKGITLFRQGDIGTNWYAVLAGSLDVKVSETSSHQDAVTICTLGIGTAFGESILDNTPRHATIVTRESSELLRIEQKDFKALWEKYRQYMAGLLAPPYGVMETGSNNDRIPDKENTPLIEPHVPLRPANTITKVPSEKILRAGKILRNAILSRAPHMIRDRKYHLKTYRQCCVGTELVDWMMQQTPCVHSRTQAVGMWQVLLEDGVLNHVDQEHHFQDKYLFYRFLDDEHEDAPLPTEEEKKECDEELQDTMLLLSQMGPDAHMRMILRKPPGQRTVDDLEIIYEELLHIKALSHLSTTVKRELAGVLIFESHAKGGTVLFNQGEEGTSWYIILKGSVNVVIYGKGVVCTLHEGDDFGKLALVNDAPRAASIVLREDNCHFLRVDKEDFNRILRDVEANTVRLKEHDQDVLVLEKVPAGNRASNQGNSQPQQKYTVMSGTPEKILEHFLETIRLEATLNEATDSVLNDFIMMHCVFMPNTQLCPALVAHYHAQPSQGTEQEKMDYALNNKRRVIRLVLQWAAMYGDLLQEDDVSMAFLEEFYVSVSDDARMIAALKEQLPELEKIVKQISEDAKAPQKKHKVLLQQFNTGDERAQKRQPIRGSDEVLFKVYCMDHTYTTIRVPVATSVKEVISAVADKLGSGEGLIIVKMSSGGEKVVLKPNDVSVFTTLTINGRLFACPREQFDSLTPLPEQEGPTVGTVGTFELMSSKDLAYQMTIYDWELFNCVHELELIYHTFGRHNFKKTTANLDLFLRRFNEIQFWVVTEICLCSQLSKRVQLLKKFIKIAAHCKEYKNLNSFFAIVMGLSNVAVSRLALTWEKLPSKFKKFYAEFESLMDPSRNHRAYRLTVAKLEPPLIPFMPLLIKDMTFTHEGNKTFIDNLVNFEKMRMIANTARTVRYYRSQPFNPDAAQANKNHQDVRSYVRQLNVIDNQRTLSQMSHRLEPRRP

Row | Structure (SMILES) | Potency | activity, negative = inhibition
1 | CCC1CCCCN1C(=O)c1cccc(S(=O)(=O)Nc2cc(C(F)(F)F)ccc2Cl)c1 (configuration not stated) | inconclusive [inhibitor, partial curve] | 
2 | Cc1cc2nc(C3CCN(CC4COc5ccccc5O4)CC3)[nH]c2cc1C (configuration not stated) |  | inactive: 0.48%
3 | O=[N+]([O-])c1cc(CN2CCN(c3cccc(C(F)(F)F)c3)CC2)c2cccnc2c1O |  | inactive: -5.91%
4 | CC(=O)NC(c1cccc(F)c1)c1nc(-c2cccc(C(C)C)c2)cs1 (configuration not stated) | inconclusive [inhibitor, partial curve] | 
5 | Fc1cccc(Cl)c1C1Nc2cccc3cccc(c23)N1 | inconclusive [inhibitor, partial curve] | 
6 | CCCCCCSc1cc(-c2nc3cnccn3c2NCCCC)ccc1OC | inconclusive [inhibitor, partial curve] | 
7 | COc1ccc2c(c1)c(C(C)=O)c(C)n2-c1ccccc1OC | inconclusive [inhibitor, partial curve] | 
8 | CC#CCCC(=O)N1C=Cc2ccccc2C1C#N (configuration not stated) |  | inactive: -6.03%
9 | COC1CCCCC1NS(=O)(=O)c1ccc(Cl)cc1 (configuration not stated) | inconclusive [inhibitor, partial curve] | 
10 | COc1cccc(-c2ncn(CCc3ccccc3OC)c2C(C)C)c1 | inconclusive [inhibitor, partial curve] | 
11 | Cc1ccc(NC(=O)c2cnc(SCC(=O)NCC3CCCO3)n(C)c2=O)cc1C (configuration not stated) | inconclusive [inhibitor, full curve, poor fit] | 
12 | C[C@@H]1CN([C@@H](C)CO)C(=O)c2cc(NC(=O)CCC(F)(F)F)ccc2O[C@H]1CN(C)S(=O)(=O)c1ccc(Cl)cc1 | inconclusive [inhibitor, full curve, poor fit] | 
13 | CN(CC(=O)NC(c1ccccc1)c1ccccc1)Cc1nc2ccccc2c(=O)[nH]1 |  | inactive: -8.4%
14 | O=C(COCc1ccccc1)N[C@@H]1c2ccccc2CC[C@@H]1OCc1ccccc1 | inconclusive [inhibitor, partial curve, poor fit] | 
15 | CCOc1ccc(S(=O)(=O)N(CC(=O)NCc2ccncc2)c2ccc(C)cc2)cc1 |  | inactive: 11.4%
16 | CCC/C=C(\CCC)C(NC(=O)Cc1ccccc1)c1ccc(C(=O)OC)cc1 (configuration not stated) | inconclusive [inhibitor, full curve, poor fit] | 
17 | Cc1ccc(Cl)cc1N1CCN(C(=O)CCCn2c(=O)c3cccn3c3cccnc32)CC1 | inconclusive [inhibitor, full curve] | 
18 | COc1ccc(C(C)(O)c2nc(-c3cccc(C(C)C)c3)cs2)cc1 (configuration not stated) | inconclusive [inhibitor, partial curve] | 
19 | CN(Cc1c(F)cccc1Cl)C(=O)c1cc2ccccc2o1 | inconclusive [inhibitor, partial curve] | 
20 | O=[N+]([O-])c1ccc(O)c(C=NNc2ccc(S(=O)(=O)O)cc2)c1 | inconclusive [inhibitor, full curve] | 
21 | Cc1c(C(=O)NCC2CCCO2)oc2ccc(S(=O)(=O)N3CC(C)CC(C)C3)cc12 (configuration not stated) | inconclusive [inhibitor, single point] | 

Row | Structure (SMILES) | Potency | activity, negative = inhibition
22 | O=C(NCC1CCCO1)c1ccccc1-c1nc(-c2ccccc2)no1 (configuration not stated) | inconclusive [inhibitor, single point] | 
23 | OCC1(CCc2ccccc2)CCN(C/C=C/c2ccccc2)CC1 |  | inactive: 1.39%
24 | CCCCC[C@@H](C)N1C[C@H](COCc2ccccc2)Oc2cc(N3CC[C@H](O)C3)ccc2S1(=O)=O | inconclusive [inhibitor, partial curve] | 
25 | N#CC1=C(N)Oc2cc(O)c(Cl)cc2C1c1ccccc1F (configuration not stated) | inconclusive [inhibitor, single point] | 
26 | O=C(Nc1ccc(-c2ccccc2)cc1)c1ccccc1 | inconclusive [inhibitor, partial curve] | 
27 | O=C(O/N=C(\c1ccccc1)c1ccncc1)c1ccccc1Cl | inconclusive [inhibitor, partial curve] | 
28 | O=C(c1cc(Sc2cccc(Cl)c2)nc2ccccc12)N1CCN(c2ccccn2)CC1 | inconclusive [inhibitor, partial curve] | 
29 | CC1(C)C(CSc2nc3ccccc3[nH]2)C1(Cl)Cl (configuration not stated) | inconclusive [inhibitor, partial curve] | 
30 | COc1ccc(N(C)C(=O)c2oc(=O)c3ccccc3c2-c2ccc(C)cc2)c(OC)c1 | inconclusive [inhibitor, full curve] | 
31 | COc1ccc(C(=O)n2c(-c3ccco3)nc3ccccc32)cc1 | inconclusive [inhibitor, partial curve] | 
32 | CCCOc1cc(NCc2ccccc2)c2ncn(C(C)C)c2c1 | inconclusive [inhibitor, partial curve, poor fit] | 
33 | O=C(NCc1c(F)cccc1F)c1cc(COc2c(F)cccc2F)on1 | inconclusive [inhibitor, single point] | 
34 | COc1ccc(C=NNC(=O)c2cc(C)oc2C)cc1O |  | inactive: 1.9%
35 | C/C(N)=C(/C#N)C(=O)COC(=O)c1ccccc1Cc1ccccc1 | inconclusive [inhibitor, partial curve] | 
36 | Cc1c(C(=O)NCc2ccccc2C(F)(F)F)sc(=O)n1Cc1cccc(C(F)(F)F)c1 | inconclusive [inhibitor, full curve, poor fit] | 
37 | CCc1ccc2c(c1)c(N=NC1=NC(=O)CS1)c(O)n2C | inconclusive [inhibitor, single point] | 
38 | CCCCC(=O)N(C)c1c(CC)nc2c(OCc3ccc(C(F)(F)F)cc3)cccn12 | active: 20 µM | 
39 | CC(C)(Oc1ccc(Cl)cc1)C(=O)Nc1ccncc1 |  | inactive: -3.09%
40 | Cc1ccc(-c2cc(C(=O)N3CC(C)OC(C)C3)c3ccccc3n2)o1 (configuration not stated) |  | inactive: 5.3%
41 | CCCCCCCCCCOC(=O)Cn1c(COc2cccc(OC)c2)[n+](C)c2ccccc21 | inconclusive [inhibitor, single point] | 
42 | CCCC(C)NC(=O)CSc1nc(-c2ccccc2)cn1N (configuration not stated) | inconclusive [inhibitor, partial curve] | 
